Among the data in publication PMC3307728 are binding values, retold here.

By UniProt entry, the sequences of proteins in these tests, tags left out. Where a name states a change or a piece, a line headed by the entry shows the natural chain unless it says otherwise. Residues count along the entry.
UniProt P12956: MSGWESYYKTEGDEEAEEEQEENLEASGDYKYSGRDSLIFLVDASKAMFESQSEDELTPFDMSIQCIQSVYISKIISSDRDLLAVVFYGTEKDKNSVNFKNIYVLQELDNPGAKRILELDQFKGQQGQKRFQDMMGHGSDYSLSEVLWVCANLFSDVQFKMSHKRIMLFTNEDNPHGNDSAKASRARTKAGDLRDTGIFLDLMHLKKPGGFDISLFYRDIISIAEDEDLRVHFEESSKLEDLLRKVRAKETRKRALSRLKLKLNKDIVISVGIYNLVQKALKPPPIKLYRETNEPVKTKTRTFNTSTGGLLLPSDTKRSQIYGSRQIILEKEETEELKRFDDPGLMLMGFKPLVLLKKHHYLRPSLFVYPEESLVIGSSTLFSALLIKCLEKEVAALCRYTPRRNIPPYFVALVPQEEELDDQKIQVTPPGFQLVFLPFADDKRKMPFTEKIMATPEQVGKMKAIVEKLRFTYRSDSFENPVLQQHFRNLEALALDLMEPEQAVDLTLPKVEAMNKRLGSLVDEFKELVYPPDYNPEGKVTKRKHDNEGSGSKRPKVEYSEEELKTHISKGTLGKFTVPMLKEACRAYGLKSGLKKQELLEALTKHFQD
GST-Ku70 (396–609): residues 396-609 of P12956
GST-Ku70 (550–609): residues 550-609 of P12956
UniProt P13010: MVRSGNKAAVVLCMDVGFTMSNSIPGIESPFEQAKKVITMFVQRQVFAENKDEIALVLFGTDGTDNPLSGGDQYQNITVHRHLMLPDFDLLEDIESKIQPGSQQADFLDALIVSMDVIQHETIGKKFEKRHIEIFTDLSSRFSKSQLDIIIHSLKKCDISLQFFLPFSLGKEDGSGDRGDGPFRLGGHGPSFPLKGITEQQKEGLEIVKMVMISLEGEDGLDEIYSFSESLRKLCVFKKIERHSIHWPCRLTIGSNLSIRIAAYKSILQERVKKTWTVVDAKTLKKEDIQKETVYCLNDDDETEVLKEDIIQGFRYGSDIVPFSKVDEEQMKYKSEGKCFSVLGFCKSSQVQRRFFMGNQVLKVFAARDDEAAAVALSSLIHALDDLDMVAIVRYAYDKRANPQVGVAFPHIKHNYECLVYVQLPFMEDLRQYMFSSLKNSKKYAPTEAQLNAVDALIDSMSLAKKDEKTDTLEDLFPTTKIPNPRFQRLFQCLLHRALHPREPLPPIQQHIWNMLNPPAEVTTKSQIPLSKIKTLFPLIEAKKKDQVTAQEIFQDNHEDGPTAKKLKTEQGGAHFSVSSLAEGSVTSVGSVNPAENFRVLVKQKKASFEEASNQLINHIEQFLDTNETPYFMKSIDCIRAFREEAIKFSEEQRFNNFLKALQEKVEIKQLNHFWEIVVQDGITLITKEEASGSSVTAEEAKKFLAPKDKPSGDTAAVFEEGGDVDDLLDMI
UniProt P78527: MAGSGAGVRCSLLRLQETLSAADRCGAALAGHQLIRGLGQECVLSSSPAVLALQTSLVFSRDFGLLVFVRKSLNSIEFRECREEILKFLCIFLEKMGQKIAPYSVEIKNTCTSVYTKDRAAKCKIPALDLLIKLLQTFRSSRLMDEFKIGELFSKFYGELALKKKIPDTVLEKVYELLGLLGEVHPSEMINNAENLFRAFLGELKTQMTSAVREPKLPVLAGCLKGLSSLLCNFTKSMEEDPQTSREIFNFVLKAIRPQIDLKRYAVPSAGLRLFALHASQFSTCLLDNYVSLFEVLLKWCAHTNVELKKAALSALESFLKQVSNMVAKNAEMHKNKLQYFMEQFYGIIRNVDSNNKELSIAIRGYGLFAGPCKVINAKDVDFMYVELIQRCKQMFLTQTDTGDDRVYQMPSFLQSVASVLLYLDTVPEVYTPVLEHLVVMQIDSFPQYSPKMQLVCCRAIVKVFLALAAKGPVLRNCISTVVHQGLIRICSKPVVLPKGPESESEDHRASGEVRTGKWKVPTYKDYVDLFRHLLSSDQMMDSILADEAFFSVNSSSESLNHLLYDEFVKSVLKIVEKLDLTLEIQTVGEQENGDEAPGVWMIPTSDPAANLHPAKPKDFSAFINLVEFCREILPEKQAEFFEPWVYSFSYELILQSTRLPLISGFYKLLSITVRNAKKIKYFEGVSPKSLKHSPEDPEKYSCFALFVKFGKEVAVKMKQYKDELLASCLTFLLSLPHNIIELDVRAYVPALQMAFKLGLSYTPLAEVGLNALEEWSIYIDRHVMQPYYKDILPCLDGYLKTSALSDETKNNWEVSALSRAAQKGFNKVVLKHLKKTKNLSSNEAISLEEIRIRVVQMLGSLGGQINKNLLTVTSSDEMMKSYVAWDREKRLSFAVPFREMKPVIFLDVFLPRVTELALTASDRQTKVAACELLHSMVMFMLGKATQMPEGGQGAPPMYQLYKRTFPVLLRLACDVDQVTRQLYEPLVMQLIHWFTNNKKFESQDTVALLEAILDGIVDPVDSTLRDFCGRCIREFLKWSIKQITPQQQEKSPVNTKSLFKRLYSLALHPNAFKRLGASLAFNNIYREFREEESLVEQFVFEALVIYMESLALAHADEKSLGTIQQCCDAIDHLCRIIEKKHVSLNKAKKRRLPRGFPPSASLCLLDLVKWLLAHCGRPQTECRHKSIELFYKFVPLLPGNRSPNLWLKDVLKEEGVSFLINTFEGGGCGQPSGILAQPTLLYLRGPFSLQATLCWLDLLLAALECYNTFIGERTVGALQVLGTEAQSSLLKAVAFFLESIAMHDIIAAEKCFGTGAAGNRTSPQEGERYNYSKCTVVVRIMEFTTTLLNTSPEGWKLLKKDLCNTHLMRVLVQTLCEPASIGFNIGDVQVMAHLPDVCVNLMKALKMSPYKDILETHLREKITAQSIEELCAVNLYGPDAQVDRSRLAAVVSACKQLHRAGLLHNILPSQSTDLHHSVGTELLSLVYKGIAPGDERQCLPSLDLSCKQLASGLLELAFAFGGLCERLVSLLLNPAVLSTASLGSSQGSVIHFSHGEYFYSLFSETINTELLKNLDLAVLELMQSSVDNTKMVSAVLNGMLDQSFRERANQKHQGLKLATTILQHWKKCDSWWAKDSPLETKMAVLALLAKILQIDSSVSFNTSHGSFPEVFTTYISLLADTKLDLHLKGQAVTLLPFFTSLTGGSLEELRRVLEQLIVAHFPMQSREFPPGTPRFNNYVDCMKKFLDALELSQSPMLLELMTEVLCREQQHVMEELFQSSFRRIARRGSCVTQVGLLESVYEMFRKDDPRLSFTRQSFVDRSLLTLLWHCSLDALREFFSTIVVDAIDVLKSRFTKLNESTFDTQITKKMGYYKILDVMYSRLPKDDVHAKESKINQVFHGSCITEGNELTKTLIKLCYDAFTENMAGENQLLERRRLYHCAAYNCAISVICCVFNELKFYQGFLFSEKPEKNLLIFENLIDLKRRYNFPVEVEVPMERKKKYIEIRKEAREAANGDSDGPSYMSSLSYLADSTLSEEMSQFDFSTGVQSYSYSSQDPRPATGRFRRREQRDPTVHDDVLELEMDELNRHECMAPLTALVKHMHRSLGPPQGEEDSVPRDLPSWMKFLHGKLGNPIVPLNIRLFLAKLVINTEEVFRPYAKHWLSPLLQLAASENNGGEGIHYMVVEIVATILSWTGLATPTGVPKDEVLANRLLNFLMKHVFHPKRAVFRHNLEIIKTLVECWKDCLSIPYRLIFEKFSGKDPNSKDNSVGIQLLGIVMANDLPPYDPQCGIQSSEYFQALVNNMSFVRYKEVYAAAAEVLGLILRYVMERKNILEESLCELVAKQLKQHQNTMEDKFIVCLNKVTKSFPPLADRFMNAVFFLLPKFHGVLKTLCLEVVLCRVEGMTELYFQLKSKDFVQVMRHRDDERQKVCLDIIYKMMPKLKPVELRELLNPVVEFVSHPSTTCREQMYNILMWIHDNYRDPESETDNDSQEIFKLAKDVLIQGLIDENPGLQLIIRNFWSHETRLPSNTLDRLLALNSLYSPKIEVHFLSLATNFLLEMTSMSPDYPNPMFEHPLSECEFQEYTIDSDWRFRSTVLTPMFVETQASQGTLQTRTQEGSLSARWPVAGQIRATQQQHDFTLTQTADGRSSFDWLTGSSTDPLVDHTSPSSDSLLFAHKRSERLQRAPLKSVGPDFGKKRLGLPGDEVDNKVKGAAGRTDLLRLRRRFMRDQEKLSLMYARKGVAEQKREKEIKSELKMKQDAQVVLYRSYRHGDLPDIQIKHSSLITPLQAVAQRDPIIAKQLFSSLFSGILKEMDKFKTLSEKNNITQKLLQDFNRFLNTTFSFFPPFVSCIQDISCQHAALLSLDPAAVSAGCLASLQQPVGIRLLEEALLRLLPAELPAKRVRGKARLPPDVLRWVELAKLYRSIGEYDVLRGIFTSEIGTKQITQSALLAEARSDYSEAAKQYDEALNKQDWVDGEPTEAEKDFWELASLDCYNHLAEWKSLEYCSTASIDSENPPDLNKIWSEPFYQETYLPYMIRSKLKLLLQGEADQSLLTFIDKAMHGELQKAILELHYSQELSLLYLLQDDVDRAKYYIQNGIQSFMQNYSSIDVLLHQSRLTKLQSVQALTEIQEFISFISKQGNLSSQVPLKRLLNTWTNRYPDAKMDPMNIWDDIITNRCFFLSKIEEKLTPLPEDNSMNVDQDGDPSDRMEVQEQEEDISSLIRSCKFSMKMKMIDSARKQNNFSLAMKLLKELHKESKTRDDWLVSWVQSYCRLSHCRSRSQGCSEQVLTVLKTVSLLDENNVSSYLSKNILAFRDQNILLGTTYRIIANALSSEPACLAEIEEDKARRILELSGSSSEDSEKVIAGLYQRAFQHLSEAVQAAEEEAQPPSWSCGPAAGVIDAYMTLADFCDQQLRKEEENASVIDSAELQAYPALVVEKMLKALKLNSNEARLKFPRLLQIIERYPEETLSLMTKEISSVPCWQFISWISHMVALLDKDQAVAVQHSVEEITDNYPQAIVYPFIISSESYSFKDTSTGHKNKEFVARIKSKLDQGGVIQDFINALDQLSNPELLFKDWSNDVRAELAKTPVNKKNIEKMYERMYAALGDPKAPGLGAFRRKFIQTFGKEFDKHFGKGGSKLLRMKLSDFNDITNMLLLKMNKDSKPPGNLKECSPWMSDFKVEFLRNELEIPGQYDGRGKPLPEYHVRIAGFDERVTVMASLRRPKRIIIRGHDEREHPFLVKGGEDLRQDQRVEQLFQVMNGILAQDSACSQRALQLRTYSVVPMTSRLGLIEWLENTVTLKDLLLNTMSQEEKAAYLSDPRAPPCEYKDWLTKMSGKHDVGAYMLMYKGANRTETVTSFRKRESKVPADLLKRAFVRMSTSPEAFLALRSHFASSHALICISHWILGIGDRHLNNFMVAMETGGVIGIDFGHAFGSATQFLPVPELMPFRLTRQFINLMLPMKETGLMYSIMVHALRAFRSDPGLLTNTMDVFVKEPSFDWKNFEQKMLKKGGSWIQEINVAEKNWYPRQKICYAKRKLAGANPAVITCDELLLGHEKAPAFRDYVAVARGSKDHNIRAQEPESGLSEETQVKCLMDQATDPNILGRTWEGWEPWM

Targets include GST-Ku70 (396–609) (UniProt P12956); GST-Ku80 (UniProt P13010); GST-Ku70 (550–609) (UniProt P12956).
For experiment [1], the target named is T1, GST-DEAF1 fusion protein (human) (UniProt O75398).
T1 sequence: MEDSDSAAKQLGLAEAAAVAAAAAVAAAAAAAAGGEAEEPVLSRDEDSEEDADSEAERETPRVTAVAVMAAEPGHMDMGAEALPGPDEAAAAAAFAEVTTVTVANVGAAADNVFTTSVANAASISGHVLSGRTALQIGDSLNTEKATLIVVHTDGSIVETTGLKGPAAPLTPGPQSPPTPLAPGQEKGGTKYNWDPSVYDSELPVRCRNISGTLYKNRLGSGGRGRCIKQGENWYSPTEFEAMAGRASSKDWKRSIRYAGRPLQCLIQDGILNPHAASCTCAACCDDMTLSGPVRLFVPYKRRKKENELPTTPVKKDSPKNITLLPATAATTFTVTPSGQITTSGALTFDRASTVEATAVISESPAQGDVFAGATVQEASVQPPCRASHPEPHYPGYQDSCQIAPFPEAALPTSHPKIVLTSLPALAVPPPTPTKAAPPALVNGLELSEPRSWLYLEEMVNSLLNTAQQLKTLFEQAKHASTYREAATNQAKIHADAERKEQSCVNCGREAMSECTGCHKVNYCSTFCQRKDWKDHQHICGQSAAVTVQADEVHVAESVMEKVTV
Put plainly: pull-down; GST-DEAF1 on glutathione-Sepharose beads incubated overnight with PC-3 cell lysate; Western blot with an antibody to DNA-PKcs; only the target purified. (In western blotting, separated proteins are transferred to a membrane and probed.)

Experiment [2] addresses T1, GST-DEAF1 fusion protein (human). Put plainly: pull-down; data not shown: GST-DEAF1 pull-downs with human kidney 293T/17 and monkey kidney CV1 cell lysates; banding profiles; only the target purified.
Experiment [3] shares this target.
The target in experiment [4] is T2, DEAF1-FLAG (in CV1 cells) (human) (UniProt O75398).
T2 sequence: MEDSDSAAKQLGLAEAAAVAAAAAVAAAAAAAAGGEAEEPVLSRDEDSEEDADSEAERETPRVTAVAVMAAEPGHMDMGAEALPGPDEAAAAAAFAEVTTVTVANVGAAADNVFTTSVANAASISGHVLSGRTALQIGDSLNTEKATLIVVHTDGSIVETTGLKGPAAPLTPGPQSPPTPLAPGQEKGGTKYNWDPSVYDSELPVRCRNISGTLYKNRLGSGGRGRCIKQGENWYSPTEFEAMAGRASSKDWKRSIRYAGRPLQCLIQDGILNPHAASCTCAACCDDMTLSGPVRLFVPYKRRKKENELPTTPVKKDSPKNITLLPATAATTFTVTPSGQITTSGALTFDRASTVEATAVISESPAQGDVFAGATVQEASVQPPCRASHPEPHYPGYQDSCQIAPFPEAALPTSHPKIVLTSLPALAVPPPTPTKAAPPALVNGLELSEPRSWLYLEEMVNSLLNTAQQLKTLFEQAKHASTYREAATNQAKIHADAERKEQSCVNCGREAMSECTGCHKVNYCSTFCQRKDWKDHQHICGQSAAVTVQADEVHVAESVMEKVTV
Put plainly: co-IP; CV1 cells transfected with epitope-tagged plasmids; lysates in lysis buffer P incubated with anti-FLAG beads overnight at 4°C; immunoblot with anti-HA or anti-DEAF1 antibody.

For experiment [5], the target named is GST-Ku70 (full-length Ku70) (UniProt P12956).
The target is the same in experiment [6]. This is another data set of the same source.
The next experiment concerns the target FLAG-Ku70 (in CV1 cells) (UniProt P12956). Kind of experiment: co-IP; CV1 cells transfected with epitope-tagged plasmids; lysates in lysis buffer P incubated with anti-FLAG beads overnight at 4°C; immunoblot with anti-HA or anti-DEAF1 antibody.
Experiment [7] concerns the target GST-Ku70 (full-length Ku70) (UniProt P12956). The source holds these as a separate data set.

Like-named read-outs stand apart in the source and are kept apart here. No constants are given. Whether binding was seen depends on the method and setting. In cells and extracts the contact can be indirect. Some results given as binding are weak or reduced against the parent protein; the word gives no strength. For part of these data: Sequences can lack the tags named with a protein.

For the molecule “DNA-PK catalytic subunit (DNA-PKcs), endogenous in PC-3 lysate (from UniProt P78527 1-4128)”, in [1], the binding result was “binds”. With “Ku70 (XRCC6), endogenous in human cell lysates (from UniProt P12956 1-609)”, the binding result in experiment [2] is given as “binds”. Consider “Ku80, in vitro translated, [35S]methionine-labeled (from UniProt P13010 1-732)”, for which the binding entry in experiment [3] is reported as “no binding”. For “HA-Ku70 (in CV1 cells) (from UniProt P12956 1-609)”, the binding entry in experiment [4] is given as “binds”. “Ku70, in vitro translated, [35S]methionine-labeled (from UniProt P12956 1-609)”: the binding entry in experiment [3] was “binds”.

B1: DEAF1 (198–326), in vitro translated (domain or fragment, UniProt O75398 198-326)
chain: VYDSELPVRCRNISGTLYKNRLGSGGRGRCIKQGENWYSPTEFEAMAGRASSKDWKRSIRYAGRPLQCLIQDGILNPHAASCTCAACCDDMTLSGPVRLFVPYKRRKKENELPTTPVKKDSPKNITLLP
modifications: [35S]methionine-labeled
As for B1, the binding result in experiment [5] is “binds”.

B2: DEAF1 (155–326), in vitro translated, [35S]methionine-labeled (domain or fragment, UniProt O75398 155-326)
chain: GSIVETTGLKGPAAPLTPGPQSPPTPLAPGQEKGGTKYNWDPSVYDSELPVRCRNISGTLYKNRLGSGGRGRCIKQGENWYSPTEFEAMAGRASSKDWKRSIRYAGRPLQCLIQDGILNPHAASCTCAACCDDMTLSGPVRLFVPYKRRKKENELPTTPVKKDSPKNITLLP
modifications: [35S]methionine-labeled
As to B2, the binding entry (in [6]; in the experiment with GST-Ku70 (396–609)) was “binds” each time.

B3: DEAF1 (untagged, expressed in CV1 cells) (protein, UniProt O75398 1-565)
chain: MEDSDSAAKQLGLAEAAAVAAAAAVAAAAAAAAGGEAEEPVLSRDEDSEEDADSEAERETPRVTAVAVMAAEPGHMDMGAEALPGPDEAAAAAAFAEVTTVTVANVGAAADNVFTTSVANAASISGHVLSGRTALQIGDSLNTEKATLIVVHTDGSIVETTGLKGPAAPLTPGPQSPPTPLAPGQEKGGTKYNWDPSVYDSELPVRCRNISGTLYKNRLGSGGRGRCIKQGENWYSPTEFEAMAGRASSKDWKRSIRYAGRPLQCLIQDGILNPHAASCTCAACCDDMTLSGPVRLFVPYKRRKKENELPTTPVKKDSPKNITLLPATAATTFTVTPSGQITTSGALTFDRASTVEATAVISESPAQGDVFAGATVQEASVQPPCRASHPEPHYPGYQDSCQIAPFPEAALPTSHPKIVLTSLPALAVPPPTPTKAAPPALVNGLELSEPRSWLYLEEMVNSLLNTAQQLKTLFEQAKHASTYREAATNQAKIHADAERKEQSCVNCGREAMSECTGCHKVNYCSTFCQRKDWKDHQHICGQSAAVTVQADEVHVAESVMEKVTV
B3: the binding entry with FLAG-Ku70 (in CV1 cells) is on record as “binds”.

B4: DEAF1, in vitro translated, [35S]methionine-labeled (protein, UniProt O75398 1-565)
chain: MEDSDSAAKQLGLAEAAAVAAAAAVAAAAAAAAGGEAEEPVLSRDEDSEEDADSEAERETPRVTAVAVMAAEPGHMDMGAEALPGPDEAAAAAAFAEVTTVTVANVGAAADNVFTTSVANAASISGHVLSGRTALQIGDSLNTEKATLIVVHTDGSIVETTGLKGPAAPLTPGPQSPPTPLAPGQEKGGTKYNWDPSVYDSELPVRCRNISGTLYKNRLGSGGRGRCIKQGENWYSPTEFEAMAGRASSKDWKRSIRYAGRPLQCLIQDGILNPHAASCTCAACCDDMTLSGPVRLFVPYKRRKKENELPTTPVKKDSPKNITLLPATAATTFTVTPSGQITTSGALTFDRASTVEATAVISESPAQGDVFAGATVQEASVQPPCRASHPEPHYPGYQDSCQIAPFPEAALPTSHPKIVLTSLPALAVPPPTPTKAAPPALVNGLELSEPRSWLYLEEMVNSLLNTAQQLKTLFEQAKHASTYREAATNQAKIHADAERKEQSCVNCGREAMSECTGCHKVNYCSTFCQRKDWKDHQHICGQSAAVTVQADEVHVAESVMEKVTV
modifications: [35S]methionine-labeled
On to B4, for which the binding result is listed as “binds” in experiment [7] and “no binding” with GST-Ku80.

B5: DEAF1 (167–565), in vitro translated, [35S]methionine-labeled (domain or fragment, UniProt O75398 167-565)
chain: AAPLTPGPQSPPTPLAPGQEKGGTKYNWDPSVYDSELPVRCRNISGTLYKNRLGSGGRGRCIKQGENWYSPTEFEAMAGRASSKDWKRSIRYAGRPLQCLIQDGILNPHAASCTCAACCDDMTLSGPVRLFVPYKRRKKENELPTTPVKKDSPKNITLLPATAATTFTVTPSGQITTSGALTFDRASTVEATAVISESPAQGDVFAGATVQEASVQPPCRASHPEPHYPGYQDSCQIAPFPEAALPTSHPKIVLTSLPALAVPPPTPTKAAPPALVNGLELSEPRSWLYLEEMVNSLLNTAQQLKTLFEQAKHASTYREAATNQAKIHADAERKEQSCVNCGREAMSECTGCHKVNYCSTFCQRKDWKDHQHICGQSAAVTVQADEVHVAESVMEKVTV
modifications: [35S]methionine-labeled
For B5, the binding entry with GST-Ku70 (550–609) was “binds”.
